Laboratory results as given in the antibiotic and cytotoxicity screens of Wong et al. (2023).
The other results are listed elsewhere or left out.

tested on: HSkMC (human skeletal muscle cells); assay: cytotoxicity call (relative viability < 0.9); conditions: 10 µM

SMILES	cytotoxicity call
C[C@H](CO)N1C[C@H](C)[C@H](CN(C)Cc2ccncc2)Oc2c(NS(=O)(=O)c3ccccc3)cccc2C1=O	inactive
CC(C)NC(=O)Nc1ccc2c(c1)C(=O)N([C@H](C)CO)C[C@H](C)[C@H](CN(C)C(=O)Nc1ccccc1)OCCCC[C@@H](C)O2	inactive
C[C@@H]1CN([C@@H](C)CO)C(=O)Cc2cc(NS(=O)(=O)c3cn(C)cn3)ccc2O[C@@H]1CN(C)Cc1ccc(C(=O)O)cc1	inactive
COc1ncnc(N)c1OC	inactive
C[C@H](CO)N1C[C@H](C)[C@H](CN(C)CC2CCCCC2)Oc2c(NS(=O)(=O)c3cn(C)cn3)cccc2C1=O	inactive
C[C@H](CO)N1C[C@H](C)[C@H](CN(C)Cc2ccccc2)OCCCC[C@H](C)Oc2ccc(NC(=O)C3CCCCC3)cc2C1=O	inactive
C[C@H](CO)N1C[C@H](C)[C@@H](CN(C)Cc2ccc(-c3ccccc3)cc2)Oc2ccc(NC(=O)C3CC3)cc2C1=O	inactive
C[C@@H]1CCCCO[C@H](CN(C)Cc2ccc3c(c2)OCO3)[C@@H](C)CN([C@@H](C)CO)C(=O)c2cc(NC(=O)Nc3ccc(C(F)(F)F)cc3)ccc2O1	active
COc1ccccc1S(=O)(=O)N[C@@H]1CC[C@H](CCNC(=O)C2CC2)O[C@H]1CO	inactive
C[C@@H]1CN([C@H](C)CO)C(=O)c2cc(NC(=O)c3ccccc3)ccc2O[C@@H](C)CCCCO[C@@H]1CN(C)Cc1ccc(Cl)c(Cl)c1	inactive
O=C(CN1C(=O)c2cccc3cccc(c23)C1=O)N1CCN(CCN2C(=O)[C@@H]3[C@@H](C2=O)[C@@H]2C=C[C@@H]3C2)CC1	inactive
COc1ccc(CN(C)C[C@@H]2Oc3ccc(NS(=O)(=O)c4cn(C)cn4)cc3CC(=O)N([C@@H](C)CO)C[C@@H]2C)cc1	inactive
CCCC(=O)Nc1ccc2c(c1)OC[C@@H](C)N(Cc1ccc(-c3ccccn3)cc1)C[C@@H](C)[C@H](OC)CN(C)C2=O	inactive
CO[C@H]1CN(C)C(=O)c2cc(NC(=O)CC(F)(F)F)ccc2OC[C@@H](C)N(S(=O)(=O)c2cn(C)cn2)C[C@H]1C	inactive
COc1ccc(S(=O)(=O)Nc2ccc3c(c2)C(=O)N([C@H](C)CO)C[C@H](C)[C@H](CN(C)C(=O)CCC(F)(F)F)OCCCC[C@H](C)O3)cc1	inactive
C[C@@H]1CN([C@@H](C)CO)C(=O)c2cc(C3=CCCCC3)cnc2O[C@H]1CN(C)C(=O)CN1CCOCC1	inactive
Cc1ccc(S(=O)(=O)Nc2cccc3c2O[C@H](CN(C)C(=O)Nc2ccc(C(F)(F)F)cc2)[C@@H](C)CN([C@H](C)CO)C3=O)cc1	inactive
COc1ccccc1CNC(=O)C[C@@H]1C[C@@H]2c3cc(NC(=O)c4cccnc4)ccc3O[C@@H]2[C@H](CO)O1	inactive
CO[C@H]1CN(C)C(=O)c2ccc(NS(C)(=O)=O)cc2OC[C@@H](C)N(C(=O)c2ccc3c(c2)OCO3)C[C@@H]1C	inactive
C[C@@H]1CCCCO[C@H](CN(C)Cc2ccncc2)[C@H](C)CN([C@@H](C)CO)C(=O)c2cc(NC(=O)C3CCCCC3)ccc2O1	inactive

SMILES	cytotoxicity call
COc1ccc(CN(C)C[C@@H]2OCCCC[C@H](C)Oc3ccc(NC(=O)Nc4ccccc4)cc3C(=O)N([C@H](C)CO)C[C@@H]2C)cc1	inactive
COc1ccc(S(=O)(=O)Nc2cccc3c2O[C@H](CN(C)S(=O)(=O)c2cn(C)cn2)[C@H](C)CN([C@H](C)CO)C3=O)cc1	inactive
C[C@@H]1CN([C@@H](C)CO)C(=O)c2cccc(NC(=O)Nc3ccc(C(F)(F)F)cc3)c2O[C@@H]1CN(C)CC1CCCCC1	inactive
O=C(O)c1cn(C2CC2)c2cc(N3CCC(O)(COc4ccc(N5C[C@H](CO)OC5=O)cc4F)CC3)c(F)cc2c1=O	inactive
N=C(N)S/C=C\C(=O)O	inactive
O=C(CCCCCCC(=O)Nc1ccccc1O)N/N=C/c1cc(Br)c(O)c(Br)c1	inactive
N[C@H]1CCN(O)C1=O	inactive
Cl.NCCCC(N)(C(=O)O)C(F)F.O (stereo not given)	inactive
CC(C)NC(=O)N(C)C[C@@H]1Oc2ccc(NC(=O)Cn3cnnn3)cc2CC(=O)N([C@H](C)CO)C[C@H]1C	inactive
COc1ccc([C@@H]([C@H](Cc2ccccc2)OC(C)=O)N2C[C@@H](OC(C)=O)[C@H]3C(=NO[C@@H]3c3ccccc3)[C@@H]2Cc2ccccc2)cc1	inactive
Cc1noc(C)c1S(=O)(=O)N(C)C[C@@H]1Oc2ccc(NS(=O)(=O)c3ccc(Cl)cc3)cc2C(=O)N([C@@H](C)CO)C[C@@H]1C	inactive
CCCN(C)C[C@H]1OCCCC[C@@H](C)Oc2ccc(NS(=O)(=O)c3ccc(Cl)cc3)cc2C(=O)N([C@H](C)CO)C[C@@H]1C	inactive
CC(C)C#Cc1ccc2c(c1)O[C@H](CN(C)C(=O)Cc1ccccn1)[C@H](C)CN([C@H](C)CO)S2(=O)=O	inactive
C[C@H]1CCCCO[C@@H](CN(C)Cc2ccc(C(F)(F)F)cc2)[C@@H](C)CN([C@@H](C)CO)C(=O)c2cc(NS(=O)(=O)c3ccccc3)ccc2O1	inactive
COC(CNC(=O)C1CCN(S(=O)(=O)c2cccc3nsnc23)CC1)OC	inactive
Cc1ccc(S(=O)(=O)N(C)C[C@H]2Oc3ccc(NS(=O)(=O)c4cn(C)cn4)cc3C(=O)N([C@@H](C)CO)C[C@@H]2C)cc1	inactive
CN(C)CCCNC(=O)C[C@H]1CC[C@@H](NS(=O)(=O)c2ccccc2)[C@@H](CO)O1	inactive
O=C(C[C@H]1CC[C@H]2[C@@H](COC[C@H](O)CN2Cc2cccc(C(F)(F)F)c2)O1)NCCc1ccncc1	inactive
Cl.Fc1ccc(C2CCNCC2COc2ccc3c(c2)OCO3)cc1 (stereo not given)	inactive
COCCC(=O)N1CCC2(CC1)COC2	inactive
